In all, about 340,000 compounds went through this assay and about 6,900 (2%) were called active. No stated cut-off is given here; in the data, active means inhibition above about 30%; inactive means below that, where a call was filed. This is a selection; strong and weak results do not stand in their true shares. The source gives no active or inactive call for entries shown without one.

UniProt P14416, sequence (P14416 whole entry, looked up): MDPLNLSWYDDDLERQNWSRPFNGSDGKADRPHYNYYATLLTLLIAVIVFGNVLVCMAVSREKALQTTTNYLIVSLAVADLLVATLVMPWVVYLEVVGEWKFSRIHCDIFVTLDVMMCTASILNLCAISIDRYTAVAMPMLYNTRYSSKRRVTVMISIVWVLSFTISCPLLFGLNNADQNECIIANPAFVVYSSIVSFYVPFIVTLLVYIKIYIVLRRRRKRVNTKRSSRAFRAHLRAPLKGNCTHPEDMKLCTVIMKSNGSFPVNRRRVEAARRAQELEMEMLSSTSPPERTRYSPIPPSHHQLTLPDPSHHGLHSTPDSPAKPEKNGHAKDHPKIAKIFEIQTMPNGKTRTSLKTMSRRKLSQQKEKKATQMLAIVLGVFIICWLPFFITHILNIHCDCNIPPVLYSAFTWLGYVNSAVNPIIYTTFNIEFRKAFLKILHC

This test concerns the target D(2) dopamine receptor (Homo sapiens) (UniProt P14416). The test can be described thus: HTS Assay for Allosteric Antagonists of the Human D2 Dopamine Receptor: Primary Screen for Antagonists. Further: 0% is about no effect. Particulars: HEK293 TREx D2 cells, calcium flux, dopamine EC80; at 10 µM; stronger effect = higher value. Summed up:
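Read-out: kinetic calcium fluorescence (1 cycle/s) in inducible HEK293 T-REx D2 cells after an EC80 dopamine addition that followed 180 s compound preincubation. Loss of the dopamine response indicates antagonism.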
In general, inhibition refers to the drop in the measured response relative to a control, in per cent. With `Cc1ccc2oc(C(=O)Nc3c(C(=O)Nc4ccccc4)oc4ccccc34)cc(=O)c2c1`, the inhibition was 0.213%.
For `CCCOc1ccc(N2CC(C(=O)Nc3cccc(Cl)c3Cl)CC2=O)cc1` (stereo not given) the value was 8.07%; for `CCOc1ccc(CCNC(=O)CN2C(=O)COc3ccc(S(=O)(=O)N4CCC(C)CC4)cc32)cc1`, -11.3%; for `Cc1ccc(NC(=O)CCn2cccn2)cc1Cl`, 3.62%.
The same measure for `Cc1nn(CC(=O)NCCc2ccc(Cl)cc2)c(=O)c2cc3cc(F)ccc3n12`: 10.5%; for `Cc1ccc(-n2nc3c(N4CCC(C(=O)N5CCCCC5)CC4)nnc(C)c3c2C)cc1`: -4.97%.
For `Cc1ccc(NC(=O)CCc2nnc3n(CC(C)C)c(=O)c4ccccc4n23)cc1C` the value was 8.73%; for `CCCc1cc(N2CCN(c3cc(Cl)ccc3C)CC2)n2cnnc2n1`, 9.13%; for `COc1ccc(CNC(=O)Cn2nc(C)c3nn(-c4ccc(Cl)cc4)c(C)c3c2=O)cc1`, 1.91%.
On to `COc1ccc(-c2cc(NCc3ccc(F)cc3)n3cnnc3n2)cc1`, for which the inhibition is 0.179%.
For `O=C(Nc1cccc(Cl)c1)Nc1c[nH]c(=O)[nH]c1=O` the value was active: 34.3%; for `Cc1cc(OCC(=O)NCC2(N3CCN(C)CC3)CCCCC2)cc(C)c1Cl`, -1.2%.
In the case of `COc1cc(C(=O)NC(c2ccccc2Cl)c2cc(Cl)c3cccnc3c2O)cc(OC)c1OC` (stereo not given), the inhibition came to 3.95%.
On to `CC(=O)Nc1ccc(NC(=O)c2cc(CN3CCCC3)on2)cc1`, for which the inhibition came out at 4.18%.
For `COc1ccc(NC(=O)CSc2oc(-c3ccco3)nc2S(=O)(=O)c2ccc(C)cc2)c(OC)c1` the value was 5.8%; for `CCOc1ccc(NC(=O)Cn2c(=O)n(CC3CCC(C(=O)NCCc4ccccc4)CC3)c(=O)c3ccccc32)cc1` (stereo not given), 9.15%; for `COc1ccccc1C(=O)Nc1cccc(C(=O)OCc2cc(=O)n3c4c(sc3n2)CCCC4)c1`, -0.785%.
As for `CN(C)S(=O)(=O)c1ccc2c(c1)N(CC(=O)Nc1cccc(C(F)(F)F)c1)C(=O)CS2`, the inhibition stood at 9.55%.
For `Cc1onc(-c2ccccc2Cl)c1C(=O)Oc1ccccc1F` the value was 7.26%.
For `CC(C)(C)OC(=O)N1CCC(N2CCN(Cc3ccccc3)C(=O)C2=O)CC1`, the inhibition turned out to be 6.38%.
For `CCOc1ccc(NC(=O)C(CC(C)C)N2Cc3ccccc3C2=O)cc1` (stereo not given) the value was -2.94%; for `CCOC(=O)c1ccccc1NC(=O)NCc1c(-n2cccc2)sc2c1CCCC2`, -2.86%; for `CCn1ccc2c(OCC(=O)Nc3ccc(C)c(Cl)c3)cccc2c1=O`, -6.81%.
For `COc1cccc(N2CCN(C(=O)CCSCc3ccccc3F)CC2)c1` the value was 26.1%; for `CCN(CC)c1cc(C)c2cc(NC(=O)c3cc(OC)cc(OC)c3)ccc2n1`, 0.193%.
As for `Cc1cccc(C(=O)Nc2c(C(=O)N3CCN(c4ccc(F)cc4)CC3)oc3ccccc23)c1`, the inhibition amounted to 4.96%.
On to `CCOC(=O)C1CCN(S(=O)(=O)c2cc3c4c(c2)C(C)C(=O)N4CCC3)CC1` (stereo not given), for which the inhibition is -3.67%.
The same measure for `Cc1cc(=O)n(Cc2c(F)cccc2Cl)c2c1c(C)nn2-c1cccc(F)c1`: 6.11%.
The same measure for `O=C(Cc1ccc(Cl)cc1)NCC(c1cccs1)S(=O)(=O)c1ccccc1` (stereo not given): 15%; for `Cc1ccc(S(=O)(=O)N(CC(=O)Nc2ccc(F)cc2F)Cc2ccc(F)cc2)cc1`: -5.74%.
As for `COc1ccc(CNC(=O)CC2N=C3c4ccccc4N=C(SCC(=O)Nc4ccc(C(C)C)cc4)N3C2=O)cc1` (stereo not given), the inhibition is -7.11%.
The same measure for `COC(=O)CCCn1c(-c2ccc(C)cc2)c(C)n2c3c(=O)n(C)c(=O)n(C)c3nc12`: 0.922%; for `COc1ccc(-c2cn3c(n2)sc2cc(C(=O)NC(C)C45CC6CC(CC(C6)C4)C5)ccc23)cc1` (stereo not given): 17.2%; for `COc1cc([N+](=O)[O-])ccc1NC(=O)c1nc2ccccc2n(C)c1=O`: -3.26%.
The same measure for `COCc1cc(C)nc2sc3c(c12)NC(c1ccccc1C(=O)O)N(c1cccc(C(F)(F)F)c1)C3=O` (stereo not given): -3.28%.
Regarding `O=C(CSc1nnc2[nH]c(=O)cc(-c3ccccc3)n12)Nc1ccc(OC(F)(F)F)cc1`, the inhibition is -17.4%.
In the case of `Cc1csc2nc(COC(=O)c3cccc(NC(=O)COc4ccccc4Cl)c3)cc(=O)n12`, the inhibition stood at 16.7%.
The same measure for `OC(CCCN1CCCCC1)(c1ccccc1)c1ccccc1`: active: 80.1%.
For `COCCCNC(=O)c1nn(C)c2c1CS(=O)(=O)c1ccccc1-2` the value was 13.2%; for `CCc1cccc(NC(=O)Cc2nc(-c3ccc(OC)cc3)no2)c1`, -9.17%; for `Cc1ccc(CNC(=O)CCSCc2cnn(-c3ccccc3)c2-n2cccc2)cc1`, 12.6%.
The same measure for `COc1ccc(NCc2cccn2-c2nnc(N3CCOCC3)s2)cc1OC`: 10.2%; for `COc1ccc(CNC(=O)Cn2ncc3c(=O)oc4ccccc4c32)c(OC)c1`: -9.76%.
`CCCc1nc2ccccc2c(C(=O)OCc2nnc(-c3cc(OC)c(OC)c(OC)c3)o2)c1CC`: the inhibition was active: 38%.
The same measure for `CCCCNC(=O)c1cc(-c2cccnc2)nc2ccc(S(=O)(=O)NCCCC)cc12`: -6.5%; for `CC(C)Oc1ccc(S(=O)(=O)N2CCOCC2)cc1NC(=O)Cc1c(F)cccc1Cl`: active: 30.7%.
For `Cc1ccc(C)c(N2CCN(C(=O)CCS(=O)(=O)c3ccc4c(c3)oc(=O)n4C)CC2)c1` the value was 6.6%.
For `Cc1ccc(NC(=O)CN2C(=O)C(c3ccc(C)cc3)=NC23CCCCCC3)cc1` the value was -7.36%; for `Cc1ccc(C(=O)N2CCN(Cc3ccc4c(c3)OCO4)CC2)c(Cl)c1`, active: 72.6%.
Take `CCc1ccc(NC(=O)c2cccc(N3CCCS3(=O)=O)c2)cc1`: the inhibition is 4.73%.
The same measure for `COc1ccc2c(c1)c(=O)c(S(=O)(=O)c1ccc(Cl)cc1)cn2Cc1cc(C)ccc1C`: -12.9%.
Consider `CCN(CC)C(=O)c1sc2c(c1C)c(=O)n(CCc1ccccc1)c(=O)n2Cc1ccc(C)cc1`, for which the inhibition was determined as 11%.
For `CC(=O)c1c(C)n(S(=O)(=O)c2ccc(Cl)cc2)c2ccc(NS(=O)(=O)c3ccc(Cl)cc3)cc12`, the inhibition is 22.3%.
For the compound `Cc1cc(C)cc(NC(=O)Cn2nc(N3CCN(c4ccccc4)CC3)ccc2=O)c1`, the inhibition is -5.34%.
For `CC(C)c1ccc(OCC(=O)Nc2cc(-c3ccccc3)no2)cc1` the value was 15%.
On to `COC(=O)c1nn(-c2cccc(C)c2)c2nnc(Cc3ccccc3)c(=O)n12`, for which the inhibition was active: 63.1%.
The same measure for `COc1ccc(S(=O)(=O)NCCc2sc(-c3cccnc3)nc2C)cc1OC`: 4.47%; for `COc1cc(CN(C(=O)c2ccccc2Br)c2ccccn2)cc(OC)c1OC`: -8.73%.
On to `COc1ccc(CC(C)N2CCN(c3cccc(C(F)(F)F)c3)CC2)cc1OC` (stereo not given), for which the inhibition was active: 74.3%.
The same measure for `Cc1ccc(-n2cnc3cc(C(=O)NC4CCCCCC4)ccc32)c(C)c1`: -3.96%.
